# Results: the supplement of paper PMC8728848
# The list shows a part of the results.
# Legend:
# Assay in all cases: glycan array binding signal (z-score within array); higher = stronger binding
# Details in all cases: glycan notation: IUPAC condensed, linker removed
# [1] = biological target: GlcNAc(b1-6)Gal(b1-4)GlcNAc
# In short: (§1)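 From the Consortium for Functional Glycomics database, 3228 arrays were curated, keeping only those whose protein sequence was available. Binding is given as a within-array Z-score averaged across arrays sharing a protein sequence and across linkers. Negative Z-scores can be read as non-binding.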
# GlcNAc(b1-6)GalNAc = biological target: GlcNAc(b1-6)GalNAc
# In short: as §1
# GlcNAc3Prop(b1-4)GlcNAc = biological target: GlcNAc3Prop(b1-4)GlcNAc
# In short: as §1
# [2] = biological target: GlcNAc6S(b1-3)Gal(b1-4)GlcNAc
# In short: as §1
# Kdn(a2-3)Gal(b1-3)GalNAc = biological target: Kdn(a2-3)Gal(b1-3)GalNAc
# In short: as §1
# Kdn(a2-3)Gal(b1-3)GlcNAc = biological target: Kdn(a2-3)Gal(b1-3)GlcNAc
# In short: as §1
# Kdn(a2-3)Gal(b1-4)Glc = biological target: Kdn(a2-3)Gal(b1-4)Glc
# In short: as §1
# Kdn(a2-3)Gal(b1-4)GlcNAc = biological target: Kdn(a2-3)Gal(b1-4)GlcNAc
# In short: as §1
# [3] = biological target: Kdn(a2-3)Gal(b1-4)[Fuc(a1-3)]GlcNAc
# In short: as §1
# Kdn(a2-6)Gal(b1-4)GlcNAc = biological target: Kdn(a2-6)Gal(b1-4)GlcNAc
# In short: as §1
# [4] = biological target: Man(a1-2)Man(a1-2)Man(a1-3)Man
# In short: as §1
# [5] = biological target: Man(a1-2)Man(a1-2)Man(a1-6)[Man(a1-3)]Man
# In short: as §1
# Man(a1-2)Man(a1-3)Man = biological target: Man(a1-2)Man(a1-3)Man
# In short: as §1
# [6] = biological target: Man(a1-2)Man(a1-3)[Man(a1-2)Man(a1-6)]Man
# In short: as §1
# [7] = biological target: Man(a1-2)Man(a1-3)[Man(a1-2)Man(a1-6)]Man(a1-6)[Man(a1-2)Man(a1-2)Man(a1-3)]Man
# In short: as §1
# [8] = biological target: Man(a1-2)Man(a1-3)[Man(a1-2)Man(a1-6)]Man(a1-6)[Man(a1-2)Man(a1-2)Man(a1-3)]Man(b1-4)GlcNAc(b1-4)GlcNAc
# In short: as §1
# [9] = biological target: Man(a1-2)Man(a1-3)[Man(a1-6)]Man(a1-6)[Man(a1-2)Man(a1-3)]Man(b1-4)GlcNAc(b1-4)GlcNAc
# In short: as §1
# [10] = biological target: Man(a1-2)Man(a1-6)[Man(a1-3)]Man(a1-6)[Man(a1-2)Man(a1-2)Man(a1-3)]Man
# In short: as §1
# [11] = biological target: Man(a1-2)Man(a1-6)[Man(a1-3)]Man(a1-6)[Man(a1-2)Man(a1-2)Man(a1-3)]Man(b1-4)GlcNAc(b1-4)GlcNAc
# In short: as §1
# Man(a1-3)[Man(a1-6)]Man = biological target: Man(a1-3)[Man(a1-6)]Man
# In short: as §1
# [12] = biological target: Man(a1-3)[Man(a1-6)]Man(a1-6)[Man(a1-2)Man(a1-3)]Man(b1-4)GlcNAc(b1-4)GlcNAc
# In short: as §1
# [13] = biological target: Man(a1-3)[Man(a1-6)]Man(a1-6)[Man(a1-3)]Man
# In short: as §1
# [14] = biological target: Man(a1-3)[Man(a1-6)]Man(a1-6)[Man(a1-3)]Man(b1-4)GlcNAc(b1-4)GlcNAc
# In short: as §1
# [15] = biological target: Man(a1-3)[Man(a1-6)]Man(b1-4)GlcNAc(b1-4)GlcNAc
# In short: as §1
# Man(a1-6)Man = biological target: Man(a1-6)Man
# In short: as §1
# Man(b1-4)GlcNAc = biological target: Man(b1-4)GlcNAc
# In short: as §1
# Neu5Ac(a2-3)Gal = biological target: Neu5Ac(a2-3)Gal
# In short: as §1
# [16] = biological target: Neu5Ac(a2-3)Gal(b1-3)GalNAc
# In short: as §1
# [17] = biological target: Neu5Ac(a2-3)Gal(b1-3)GalNAc(b1-3)Gal(a1-4)Gal(b1-4)Glc
# In short: as §1
# [18] = biological target: Neu5Ac(a2-3)Gal(b1-3)GalNAc(b1-4)[Neu5Ac(a2-3)]Gal(b1-4)Glc
# In short: as §1
# [19] = biological target: Neu5Ac(a2-3)Gal(b1-3)GalNAc(b1-4)[Neu5Ac(a2-8)Neu5Ac(a2-3)]Gal(b1-4)Glc
# In short: as §1
# [20] = biological target: Neu5Ac(a2-3)Gal(b1-3)GalNAc6S
# In short: as §1
# [21] = biological target: Neu5Ac(a2-3)Gal(b1-3)GlcNAc
# In short: as §1
# [22] = biological target: Neu5Ac(a2-3)Gal(b1-3)GlcNAc(b1-2)Man(a1-3)[Neu5Ac(a2-3)Gal(b1-3)GlcNAc(b1-2)Man(a1-6)]Man(b1-4)GlcNAc(b1-4)GlcNAc
# In short: as §1
# [23] = biological target: Neu5Ac(a2-3)Gal(b1-3)GlcNAc(b1-3)Gal(b1-3)GlcNAc
# In short: as §1
# [24] = biological target: Neu5Ac(a2-3)Gal(b1-3)GlcNAc(b1-3)Gal(b1-4)GlcNAc
# In short: as §1
# [25] = biological target: Neu5Ac(a2-3)Gal(b1-3)GlcNAc(b1-3)GalNAc
# In short: as §1
# [26] = biological target: Neu5Ac(a2-3)Gal(b1-3)GlcNAc6S
# In short: as §1
# [27] = biological target: Neu5Ac(a2-3)Gal(b1-3)[Fuc(a1-4)]GlcNAc
# In short: as §1
# [28] = biological target: Neu5Ac(a2-3)Gal(b1-3)[Fuc(a1-4)]GlcNAc(b1-3)Gal(b1-3)[Fuc(a1-4)]GlcNAc
# In short: as §1
# [29] = biological target: Neu5Ac(a2-3)Gal(b1-3)[Fuc(a1-4)]GlcNAc(b1-3)Gal(b1-4)[Fuc(a1-3)]GlcNAc
# In short: as §1
# [30] = biological target: Neu5Ac(a2-3)Gal(b1-3)[Neu5Ac(a2-3)Gal(b1-4)]GlcNAc
# In short: as §1
# [31] = biological target: Neu5Ac(a2-3)Gal(b1-3)[Neu5Ac(a2-6)]GalNAc
# In short: as §1
# Neu5Ac(a2-3)Gal(b1-4)Glc = biological target: Neu5Ac(a2-3)Gal(b1-4)Glc
# In short: as §1
# [32] = biological target: Neu5Ac(a2-3)Gal(b1-4)GlcNAc
# In short: as §1
# [33] = biological target: Neu5Ac(a2-3)Gal(b1-4)GlcNAc(b1-2)Man(a1-3)[GlcNAc(b1-2)Man(b1-4)GlcNAc(b1-2)Man(a1-6)]Man(b1-4)GlcNAc(b1-4)GlcNAc
# In short: as §1
# [34] = biological target: Neu5Ac(a2-3)Gal(b1-4)GlcNAc(b1-2)Man(a1-3)[Neu5Ac(a2-6)Gal(b1-4)GlcNAc(b1-2)Man(a1-6)]Man(b1-4)GlcNAc(b1-4)GlcNAc
# In short: as §1
# [35] = biological target: Neu5Ac(a2-3)Gal(b1-4)GlcNAc(b1-3)Gal
# In short: as §1
# [36] = biological target: Neu5Ac(a2-3)Gal(b1-4)GlcNAc(b1-3)Gal(b1-3)GlcNAc
# In short: as §1
# [37] = biological target: Neu5Ac(a2-3)Gal(b1-4)GlcNAc(b1-3)Gal(b1-4)GlcNAc
# In short: as §1
# [38] = biological target: Neu5Ac(a2-3)Gal(b1-4)GlcNAc(b1-3)Gal(b1-4)GlcNAc(b1-3)Gal(b1-4)GlcNAc
# In short: as §1
# [39] = biological target: Neu5Ac(a2-3)Gal(b1-4)GlcNAc(b1-3)Gal(b1-4)[Fuc(a1-3)]GlcNAc
# In short: as §1
# [40] = biological target: Neu5Ac(a2-3)Gal(b1-4)GlcNAc(b1-3)GalNAc
# In short: as §1
# [41] = biological target: Neu5Ac(a2-3)Gal(b1-4)GlcNAc(b1-6)[Gal(b1-3)]GalNAc
# In short: as §1
# [42] = biological target: Neu5Ac(a2-3)Gal(b1-4)GlcNAc(b1-6)[Neu5Ac(a2-3)Gal(b1-3)]GalNAc
# In short: as §1
# [43] = biological target: Neu5Ac(a2-3)Gal(b1-4)GlcNAc6S
# In short: as §1
# [44] = biological target: Neu5Ac(a2-3)Gal(b1-4)[Fuc(a1-3)]GlcNAc
# In short: as §1
# [45] = biological target: Neu5Ac(a2-3)Gal(b1-4)[Fuc(a1-3)]GlcNAc(b1-3)Gal
# In short: as §1
binder,measurement,setting,value
Gal 4 (Canis lupus) (protein) MAYVPAPGYQPTYNPTLPYNKPIPGGLSVGMSVYIQGITSEHMRRFCVNFVAGAHPGSDIAFHFNPRFDGWDKVVFNSHLGGKWGSEEKKRSMPFRKGTHFELVFMVLAEHYKVVVNGNPFYEFGHRLPLQLVTHLQVEGDVELQSINFIGGTQPLGQGPGHTQQQPSSLPTMEGPPVFNPPVPFRKRLQGGLTVRRTVIIKGFVPFTSKSFVINFMVESSGDLALHINPRLTEGLVVRNSCLNGSWGSEDRKLSYNPFIPGQFFDLSIRCGMDRFKVYANGQHLFDFSHRLLALQNVDMLEINGDVTLSYIQV,glycan array binding signal (z-score),[1],-0.155
same,glycan array binding signal (z-score),GlcNAc(b1-6)GalNAc,-0.153
same,glycan array binding signal (z-score),GlcNAc3Prop(b1-4)GlcNAc,-0.148
same,glycan array binding signal (z-score),[2],-0.11
same,glycan array binding signal (z-score),Kdn(a2-3)Gal(b1-3)GalNAc,-0.149
same,glycan array binding signal (z-score),Kdn(a2-3)Gal(b1-3)GlcNAc,-0.15
same,glycan array binding signal (z-score),Kdn(a2-3)Gal(b1-4)Glc,-0.152
same,glycan array binding signal (z-score),Kdn(a2-3)Gal(b1-4)GlcNAc,-0.154
same,glycan array binding signal (z-score),[3],-0.144
same,glycan array binding signal (z-score),Kdn(a2-6)Gal(b1-4)GlcNAc,-0.154
same,glycan array binding signal (z-score),[4],-0.152
same,glycan array binding signal (z-score),[5],-0.145
same,glycan array binding signal (z-score),Man(a1-2)Man(a1-3)Man,-0.142
same,glycan array binding signal (z-score),[6],-0.153
same,glycan array binding signal (z-score),[7],-0.148
same,glycan array binding signal (z-score),[8],-0.153
same,glycan array binding signal (z-score),[9],-0.143
same,glycan array binding signal (z-score),[10],-0.152
same,glycan array binding signal (z-score),[11],-0.145
same,glycan array binding signal (z-score),Man(a1-3)[Man(a1-6)]Man,-0.152
same,glycan array binding signal (z-score),[12],-0.15
same,glycan array binding signal (z-score),[13],-0.151
same,glycan array binding signal (z-score),[14],-0.149
same,glycan array binding signal (z-score),[15],-0.156
same,glycan array binding signal (z-score),Man(a1-6)Man,-0.148
same,glycan array binding signal (z-score),Man(b1-4)GlcNAc,-0.145
same,glycan array binding signal (z-score),Neu5Ac(a2-3)Gal,-0.152
same,glycan array binding signal (z-score),[16],-0.145
same,glycan array binding signal (z-score),[17],-0.152
same,glycan array binding signal (z-score),[18],-0.153
same,glycan array binding signal (z-score),[19],-0.155
same,glycan array binding signal (z-score),[20],-0.149
same,glycan array binding signal (z-score),[21],-0.144
same,glycan array binding signal (z-score),[22],-0.153
same,glycan array binding signal (z-score),[23],-0.153
same,glycan array binding signal (z-score),[24],-0.145
same,glycan array binding signal (z-score),[25],-0.159
same,glycan array binding signal (z-score),[26],-0.154
same,glycan array binding signal (z-score),[27],-0.146
same,glycan array binding signal (z-score),[28],-0.136
same,glycan array binding signal (z-score),[29],-0.138
same,glycan array binding signal (z-score),[30],-0.156
same,glycan array binding signal (z-score),[31],-0.151
same,glycan array binding signal (z-score),Neu5Ac(a2-3)Gal(b1-4)Glc,-0.131
same,glycan array binding signal (z-score),[32],-0.154
same,glycan array binding signal (z-score),[33],-0.153
same,glycan array binding signal (z-score),[34],-0.155
same,glycan array binding signal (z-score),[35],-0.158
same,glycan array binding signal (z-score),[36],-0.152
same,glycan array binding signal (z-score),[37],-0.155
same,glycan array binding signal (z-score),[38],-0.153
same,glycan array binding signal (z-score),[39],-0.153
same,glycan array binding signal (z-score),[40],-0.153
same,glycan array binding signal (z-score),[41],-0.147
same,glycan array binding signal (z-score),[42],-0.148
same,glycan array binding signal (z-score),[43],-0.141
same,glycan array binding signal (z-score),[44],-0.155
same,glycan array binding signal (z-score),[45],-0.153
